Measured values from PubChem BioAssay AID2202238 (Ras Initiative Chemistry Research Team, Frederick National …, 2025).
The other results are listed elsewhere or left out. The main result of the screen is listed elsewhere. These columns were measured beside it and carry no call.

Biological target: GTPase KRas (Homo sapiens) (UniProt P01116)
Assay: Fragment capture on engineered cysteines, share of protein labelled (AID 2202238)
Set-up: protein at 5 µM with 500 µM competing thiol for 1.5 h
Conditions: KRAS G12D cysteine mutants, disulfide tethering, MALDI-TOF labeling, stronger effect = higher value, fragment at 500 µM
[1] = measured here: G75C mutant labeling
[2] = measured here: H94C mutant labeling
[3] = measured here: I36C mutant labeling
[4] = measured here: L120C mutant labeling
[5] = measured here: M67C mutant labeling
[6] = measured here: M72C mutant labeling
[7] = measured here: N86C mutant labeling
[8] = measured here: P121C mutant labeling
[9] = measured here: S122C mutant labeling
[10] = measured here: S136C mutant labeling
[11] = measured here: G60C mutant labeling
[12] = measured here: N26C mutant labeling

Sequence of UniProt P01116 (P01116 whole entry, looked up, the tested form may be a part): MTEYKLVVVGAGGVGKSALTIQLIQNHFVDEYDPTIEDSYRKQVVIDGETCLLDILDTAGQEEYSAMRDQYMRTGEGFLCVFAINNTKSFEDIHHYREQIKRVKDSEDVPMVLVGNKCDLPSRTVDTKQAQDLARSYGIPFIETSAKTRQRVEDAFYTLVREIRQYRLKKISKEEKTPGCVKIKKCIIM

Row | Compound | percent labeling [1] [%] | percent labeling [2] [%] | percent labeling [3] [%] | percent labeling [4] [%] | percent labeling [5] [%] | percent labeling [6] [%] | percent labeling [7] [%] | percent labeling [8] [%] | percent labeling [9] [%] | percent labeling [10] [%] | percent labeling [11] [%] | percent labeling [12] [%]
1 | O=C(CCS)NC1(c2ccc(Br)cc2)COC1 | 18 | 16.1 | 33.5 | 37.5 | 6.8 | 43.9 | 27.2 | 35.2 | 31.6 | 55.4 |  | 
2 | COc1cccc(-c2cc(CN(C)C(=O)CCS)[nH]n2)c1 | 18.8 | 28.5 | 30.5 | 27.1 | 35.6 | 46.2 | 19.9 | 38.2 | 17.4 | 36.6 |  | 
3 | O=C(NCCS)c1ccc2c(c1)[nH]c(=O)n2CC(F)(F)F | 26.3 | 35.4 | 30.8 | 34.4 | 26.9 | 61.7 | 21.2 | 26.8 | 16.4 | 42.9 | 40.1 | 50.3
4 | Cc1nc(-c2cccnc2)[nH]c(=O)c1CC(=O)NCCS | 19.3 | 30.9 | 26.1 | 46.6 | 28.4 | 19.7 | 28.2 | 32.2 | 38.5 | 37.4 | 36.2 | 38
5 | O=C(CCS)Nc1ccc2c(c1)C(=O)NCC2 | 17.3 | 32.8 | 43.5 | 31.1 | 28.8 | 42.2 | 39.2 | 27.7 | 33.8 | 54.7 |  | 
6 | Cc1nc2cc(=O)[nH]n2c(C)c1CNC(=O)CCS | 4.1 | 23 | 24 | 28.2 | 28.4 | 9.1 | 9.6 | 33.5 | 36 | 36.7 |  | 
7 | O=C(CCS)NC1CCC(O)(C(F)(F)F)CC1 (centres undefined) | 9.9 | 30.7 | 33.9 | 31.7 | 36.4 | 21.7 | 26.5 | 40.3 | 41.1 | 49.1 |  | 
8 | O=C(CC1(C(=O)NCCS)CCCC1)N1CCOCC1 | 7.6 | 26.6 | 17.5 | 34.4 | 23.6 | 10.3 | 24.6 | 24.6 | 26.4 | 31.2 | 24.1 | 32.3
9 | O=C(NCCS)c1csc(-c2cnccn2)n1 | 24.9 | 34.1 | 23.4 | 35.8 | 26.1 | 53 | 21.7 | 25.4 | 23.4 | 44.7 | 39.1 | 47.2
10 | O=C(CCS)Nc1ccccc1Oc1ncc(Cl)cc1Cl | 7.7 | 18 | 20.3 | 12.5 | 19.4 | 27.9 | 11.7 | 14.5 | 7.1 | 21.5 |  | 
11 | O=C(NC1(C(=O)NCCS)CCCC1)c1ccc2[nH]ncc2c1 | 18.3 | 35.8 | 28 | 42.5 | 41.1 | 27.8 | 27.8 | 27.1 | 27.1 | 35.6 | 42.1 | 39.1
12 | Cc1ccc(N2CCCC2=O)c(C(=O)NCCS)c1 | 10.3 | 41.7 | 21.4 | 37.2 | 29.3 | 15.2 | 26.3 | 34.6 | 31.9 | 43.6 | 31.5 | 34.5
13 | O=C(CCS)Nc1cnn2cc(Br)cnc12 | 9.7 | 28.3 | 31.1 | 22.4 | 24.3 | 32.6 | 10.9 | 20.8 | 24.3 | 45.4 |  | 
14 | Cc1c(CN2CCSCC2)cccc1NC(=O)CCS | 13.9 | 36.1 | 42.3 | 30.8 | 41.1 | 25.1 | 22.9 | 31.3 | 24.7 | 59.1 |  | 
15 | CN1Cc2ccc(NC(=O)CCS)cc2C1=O | 15.4 | 21.4 | 36.1 | 28.3 | 25.3 | 35.8 | 31 | 24.1 | 32.6 | 46.3 |  | 
16 | Cn1c2c(ccc1=O)C(NC(=O)CCS)CCC2 (centres undefined) | 8.8 | 30.4 | 34.3 | 26.7 | 41.5 | 14.5 | 11.1 | 31.4 | 31.7 | 47.3 |  | 
17 | CN(CCO)C1(CNC(=O)CCS)CCCCC1 | 7.4 | 31.5 | 45.1 | 25.1 | 41.8 | 12.7 | 14.4 | 26.9 | 24.7 | 53.5 |  | 
18 | O=C(CNC(=O)N1CCc2ccccc2C1)NCCS | 12.8 | 27.2 | 22.1 | 37 | 31.7 | 29 | 18.5 | 29.1 | 24.4 | 31.2 | 27.6 | 33.8
19 | Cc1nc2nnnn2c(C)c1CCC(=O)NCCS | 11.9 | 26.5 | 41 | 26.2 | 31.8 | 17.4 | 23.8 | 32.5 | 25.3 | 36.9 | 41.5 | 33.5
20 | O=C(NCCS)c1ccc2ccccc2c1O | 24 | 14.5 | 17.1 | 18.1 | 11.4 | 59.2 | 13.7 | 28.1 | 6.3 | 28.6 | 34.7 | 30.1
21 | O=C(CCS)Nc1ccn(-c2ncccc2C(F)(F)F)n1 | 15.6 | 41 | 32.7 | 35.1 | 32.2 | 42.8 | 32.1 | 32.8 | 28.1 | 54.8 |  | 
22 | Cc1ccc2[nH]cc(CCC(=O)NCCS)c2c1 | 5.1 | 17.9 | 14.2 | 20.4 | 17.6 | 24.7 | 9 | 18.7 | 14 | 26.3 | 33.5 | 20.6
23 | CC(C)(C)CCC1(O)CC(C(=O)NCCS)C1 (centres undefined) | 11.6 | 27.2 | 17.4 | 28.9 | 23.7 | 17.8 | 24.5 | 29.4 | 28.3 | 40.3 | 29.7 | 42.2
24 | COc1ccc2onc(CC(=O)NCCS)c2c1 | 3.5 | 21.3 | 27 | 32.6 | 34.3 | 49 | 19.8 | 23.5 | 25.9 | 40.6 | 42.6 | 35.3
